In all, about 44,000 compounds went through this assay and about 340 (0.77%) were called active. About 5% were inconclusive and are not listed. Calls come from the whole dose curve; as a rule, active = well fitted inhibition curve with a large enough effect; inconclusive = small, poorly fitted or top-dose-only effect; inactive = flat fitted curve, though single readings scatter. The list shows a part of the results.
Assay: Acumen qHTS Assay for Inhibitors of the mTORC1 Signaling Pathway in MEF (Tsc2-/-, p53-/-) Cells: Sytravon;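 note: plate controls were DMSO for no effect and rapamycin for full effect; nearly all actives have a fitted effect of over 50% in size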
Conditions: phospho-rpS6 immunofluorescence/PI, 24 h; series mostly up to 38.3 µM; activity change, negative = inhibition: at the top concentration
Outline: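 Immunofluorescence of rpS6 phosphorylation in Tsc2-/-, p53-/- MEFs after 24 h compound exposure, normalized to propidium iodide signal. Activity is expressed as % positive cells, thresholded with 7.5 nM rapamycin.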

Compound	activity change, negative = inhibition
COc1ccc(S(=O)(=O)NCCc2sc(-c3ccccc3)nc2C)cc1OC	inactive: 2.63%
O=C(NCCC1=CCCCC1)c1ccc2c(c1)ncn2-c1cccc(Cl)c1	inactive: 0.347%
CCc1ccccc1NC(=O)CSc1ncc2c(n1)-c1ccccc1N(C)S2(=O)=O	inactive: 5.75%
COc1ccc(-n2c(SCC(=O)NCc3ccccc3)nc3ccsc3c2=O)cc1	inactive: -8.17%
COC(=O)c1sccc1S(=O)(=O)N(CC(=O)Nc1cc(C)cc(C)c1)c1ccc(Cl)cc1	inactive: -7.87%
COc1ccc(CNC(=O)CN2C(=O)COc3ccc(S(=O)(=O)N4CCCCCC4)cc32)cc1	inactive: -2.12%
COc1ccc(NC(=O)c2nn(C)c3c2CSc2ccc(C)cc2-3)cc1OC	inactive: 0.822%
Cc1ccc(C2Nc3ccccc3-n3c(-c4ccccc4)c4c(=O)n(C)c(=O)n(C)c4c32)cc1 (configuration not stated)	inactive: -11.9%
COc1cccc(NC(=O)c2ccc3c(=O)n4nc(Nc5ccccc5OC)sc4nc3c2)c1	inactive: -7.03%
COc1ccc(CNC(=O)c2ccc(CNS(=O)(=O)c3ccc(OC)cc3)cc2)cc1	inactive: -6.89%
COCCCNC(=O)c1ccc(Cn2c(=O)c3ccccc3n(Cc3ccc(C)cc3)c2=O)cc1	inactive: -1.14%
COCCOC(=O)Cn1nnc2sc(-c3ccccc3)cc2c1=O	inactive: 5.57%
CCOC(=O)c1ccc(NC(=O)CC2Nc3cc(C)c(C)cc3NC2=O)cc1 (configuration not stated)	inactive: 0.657%
Cc1nn(S(=O)(=O)c2ccc(C(C)C)cc2)c(C)c1S(=O)(=O)N1CCCCC1	inactive: -0.512%
Cc1ccc2c(c1)-c1c(cnn1CC(=O)N1CCN(c3cccc(C(F)(F)F)c3)CC1)CO2	inactive: 6.31%
CC(=O)N1CCCc2cc(S(=O)(=O)N3CCCC(C(=O)N4CCN(c5ccccc5F)CC4)C3)ccc21 (configuration not stated)	inactive: -15%
CCc1cccc(C)c1NS(=O)(=O)c1ccc2c(c1)NC(=O)C(C)C(=O)N2 (configuration not stated)	inactive: -0.645%
CCOc1ccc(-n2c(=O)c3c4c(sc3n(CC(=O)NCCCOC)c2=O)CCCCC4)cc1	inactive: 4.15%
Cc1nc(SCC(=O)OC(C)(C)C)c2c3c(sc2n1)CCCC3	inactive: -13.4%
CCN(CC)c1ccc2cc(-c3nc(-c4ccccc4)no3)c(=O)oc2c1	inactive: 0.0245%
O=C(NCc1cccc(Cl)c1)C1CCN(c2nn3cc(-c4ccc(F)cc4)nc3s2)CC1	inactive: -2.92%
COc1ccc(-c2cn3nc(N4CCCC(C(=O)Nc5cc(Cl)ccc5OC)C4)sc3n2)cc1 (configuration not stated)	inactive: -0.786%
Cc1ccc(CNC(=O)c2c(-c3ccc(F)cc3F)noc2C)o1	inactive: -4.37%
Cc1cc(C)c(NC(=O)Cn2nnc(C(=O)NCc3cccs3)c2N)c(C)c1	inactive: -17.6%

Compound	activity change, negative = inhibition
COc1ccc(CC(=O)NCC(c2ccc(N(C)C)cc2)N2CCOCC2)cc1OC (configuration not stated)	inactive: 0%
Cc1ccccc1OCc1ccc(-c2nc(C#N)c(N3CCCCC3)o2)o1	inactive: -4.5%
COc1cc(NC(=O)Cn2c(=O)n(-c3ccccc3)c(=O)c3c4c(sc32)CCCC4)cc(OC)c1	inactive: 2.05%
CCCCNC(=O)c1cnn2c(C)c(Cc3c(C)cc(C)cc3C)c(C)nc12	inactive: 1.06%
CSc1ccc(CNC(=O)c2ccc3c(c2)N(C)C(=O)C2CCCCN32)cc1 (configuration not stated)	inactive: -6.43%
CC(C)COc1ccc(C(=O)Nc2scc(-c3ccc(Br)cc3)c2C(=O)OC(C)C)cc1	inactive: -9.2%
CCOC(=O)c1cc2c(=O)n3ccccc3nc2n(Cc2ccco2)c1=NC(=O)c1ccc(OC)cc1	inactive: -0.0758%
COc1ccc(C(=O)COC(=O)CCCC(=O)Nc2ccc(C(C)=O)cc2)cc1	inactive: -10.5%
CCOc1ccc(-n2nc(CO)c(C(=O)NCC(c3ccccc3)c3ccccc3)n2)cc1	inactive: 4.28%
Cc1nc2cccnc2n1C1CCN(C(=O)Nc2ccccc2C(F)(F)F)CC1	inactive: 0%
CNS(=O)(=O)c1cn(CC(=O)N2CCN(c3ccc(Cl)cc3)CC2)cc1S(=O)(=O)NC	inactive: -3.56%
O=c1ccc2cc(S(=O)(=O)NCc3ccc(Cl)cc3)ccc2[nH]1	inactive: 6.87%
O=C(NCc1ccccc1)c1cccc(N2CCCS2(=O)=O)c1	inactive: 6.52%
COc1ccc(-c2cn3nc(SCC(=O)Nc4ccccc4F)ccc3n2)cc1	inactive: 6.19%
Cc1cc(C)c(NC(=O)COCc2cc(-c3cccs3)on2)c(C)c1	inactive: 0.588%
COC(=O)c1scc(-c2ccc(C)cc2)c1S(=O)(=O)Nc1ccc(NC(C)=O)cc1	inactive: -18.2%
Cc1cccc(OCC(=O)Nc2cccc(C(=O)OCc3cc(=O)n4c(C)csc4n3)c2)c1	inactive: 0%
COc1ccc(S(=O)(=O)N(CC(=O)NCCSc2ccccc2)c2ccc(Cl)cc2)cc1	inactive: -27.7%
O=C(CSc1nccn1Cc1ccc(F)cc1)NCc1ccccc1	inactive: -9.53%
CCc1cccc(N2C(=O)CSC23C(=O)N(Cc2ccccc2F)c2ccccc23)c1 (configuration not stated)	inactive: -2%
COc1ccc(-n2ncc(C(=O)NCc3ccc4c(c3)OCO4)c2C2CCN(C(=O)OC(C)(C)C)CC2)cc1	inactive: -3.83%
CCCSc1ncc(Cl)c(C(=O)Nc2sc3c(c2C(N)=O)CCCC3)n1	inactive: -11%
Cc1ccccc1CNC(=O)Cc1csc2ccccc12	inactive: -9.34%

Source: PubChem BioAssay AID493208 (National Center for Advancing Translational Sciences (NCATS), 2011)
